From publication PMC4336329 (PLoS ONE, 2015)
Among all 310,000 compounds or so, about 2,200 (0.71%) showed an effect of 50% or more. Effects have a minus sign here. This is one part of the list.

Target: human ether-à-go-go-related gene (hERG) potassium channel (human, UniProt Q12809)
Experiment: primary screen, population patch clamp on CHO cells stably expressing hERG

human ether-à-go-go-related gene (hERG) potassium channel, sequence (Q12809 whole entry, looked up): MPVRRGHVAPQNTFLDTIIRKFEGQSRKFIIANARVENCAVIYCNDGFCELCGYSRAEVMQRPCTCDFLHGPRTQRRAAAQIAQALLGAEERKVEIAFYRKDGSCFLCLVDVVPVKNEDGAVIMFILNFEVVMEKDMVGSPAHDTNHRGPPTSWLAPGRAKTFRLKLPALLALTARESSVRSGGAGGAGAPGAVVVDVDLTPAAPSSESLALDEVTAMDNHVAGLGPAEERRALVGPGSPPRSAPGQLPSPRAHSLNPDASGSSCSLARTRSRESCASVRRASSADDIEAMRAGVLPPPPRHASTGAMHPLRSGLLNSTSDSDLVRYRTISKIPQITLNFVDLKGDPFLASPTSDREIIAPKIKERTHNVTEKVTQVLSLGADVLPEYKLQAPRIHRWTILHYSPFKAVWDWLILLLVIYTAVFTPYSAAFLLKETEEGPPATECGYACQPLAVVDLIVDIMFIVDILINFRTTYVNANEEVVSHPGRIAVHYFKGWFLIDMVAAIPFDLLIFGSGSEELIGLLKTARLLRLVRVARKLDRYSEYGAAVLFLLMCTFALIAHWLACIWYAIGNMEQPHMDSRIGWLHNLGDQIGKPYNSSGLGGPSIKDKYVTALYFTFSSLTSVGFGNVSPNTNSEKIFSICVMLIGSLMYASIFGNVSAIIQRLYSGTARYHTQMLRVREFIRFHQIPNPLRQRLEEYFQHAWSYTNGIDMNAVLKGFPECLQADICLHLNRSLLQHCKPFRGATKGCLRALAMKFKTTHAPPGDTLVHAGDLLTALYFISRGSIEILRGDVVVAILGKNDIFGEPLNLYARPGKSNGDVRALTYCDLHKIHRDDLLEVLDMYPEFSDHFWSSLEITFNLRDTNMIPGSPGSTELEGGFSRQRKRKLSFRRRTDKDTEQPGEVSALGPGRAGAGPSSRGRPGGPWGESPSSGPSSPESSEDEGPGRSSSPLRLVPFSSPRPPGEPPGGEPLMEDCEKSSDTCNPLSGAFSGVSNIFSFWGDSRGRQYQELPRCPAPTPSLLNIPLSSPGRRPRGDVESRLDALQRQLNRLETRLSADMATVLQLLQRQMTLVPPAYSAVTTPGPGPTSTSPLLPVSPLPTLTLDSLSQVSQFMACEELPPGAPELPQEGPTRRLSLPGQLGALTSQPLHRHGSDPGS

Row | SMILES | hERG current change (%, negative = inhibition) at 1uM [%]
1 | CC(NC(=O)c1ccc(OC2CCN(C(=O)c3cccnc3)CC2)cc1)C1CC1 (stereo not shown) | 10.7
2 | COC(=O)C1=C(c2ccc(S(C)(=O)=O)cc2)C[C@@H]2CC[C@H]1N2C(=O)NCCNC(C)=O | 14.5
3 | Cc1cc(C)n(-c2ccc(Cl)c(C(=O)O)n2)n1 | -0.602
4 | CC(=O)Nc1ccc(NC(=O)C(C)OC(=O)/C=C/c2ccc3c(c2)OCO3)cc1 (stereo not shown) | -5.72
5 | COCC1CCCN(C(=O)c2cc(COc3ccc(C(C)=O)cc3)on2)C1 (stereo not shown) | 18.2
6 | Cc1ccc(-n2c(SCC(=O)NCCN3C(=O)CSC3=O)nnc2-c2ccccc2)cc1C | -1.61
7 | COc1ccc(-c2nnnn2CCc2ccccc2)cc1 | 9.62
8 | CC1CCN(c2nc(-c3ccccc3)c(C#N)c(=O)[nH]2)CC1 | 17
9 | Cc1ccc(-n2ncc(C(=O)Nc3ccc(Cl)cc3)c2C2CCNCC2)cc1C.Cl | -43
10 | Cc1ccc(C)c(S(=O)(=O)N2CCN(C(=O)c3sccc3C)CC2)c1 | -9.96
11 | COCCn1nnnc1CN1CCC(NC(=O)c2ccc(Br)cc2)CC1 | -9.13
12 | O=c1c(C=NCCCn2ccnc2)c(-c2ccccc2)[nH]n1-c1nc2ccccc2s1 | -26.9
13 | CC(=O)c1ccc(NC(=O)CSCCO)cc1 | 17.7
14 | Cc1cc(=O)[nH]c(N/N=C/c2cccc([N+](=O)[O-])c2)n1 | 9.49
15 | O=C1CNC(=O)/C1=C/c1ccccc1 | 14.9
16 | O=C(CSc1nncc2ccccc12)N1CCOCC1 | 7.48
17 | Cc1cccc(C)c1NC(=O)CN(C)C(=O)CN1C(=O)NC2(CCCC2)C1=O | -0.608
18 | CCN1C(=O)[C@H]2[C@@H](c3ccc(-c4cccc(Cl)c4)c(OC)c3)N[C@@](Cc3ccccc3)(C(=O)OC)[C@H]2C1=O.O=C(O)C(F)(F)F | 15
19 | COc1ccc(CNc2ncnc3sccc23)cc1 | 9.36
20 | Cc1cc(C(=O)COC(=O)C(C)NC(N)=O)c(C)n1Cc1ccco1 (stereo not shown) | 11.2
21 | CCOC(=O)CSc1n[nH]c(NC(=O)CC)n1 | 9.05
22 | COc1ccc(OC)c(-c2csc(N(CC3CCCO3)C(=O)C3CCCCC3)n2)c1 (stereo not shown) | 9.03
23 | CC(C)n1nnc2c(=O)oc3ccccc3c21 | 7.15
24 | CCN1C(=O)N(C(C)=O)C2C1N(C(C)=O)C(=O)N2C(C)=O (stereo not shown) | 14
25 | N#CC1=C(N)Oc2c(sc3ccccc23)C1c1ccco1 (stereo not shown) | 4.37
26 | COc1ccc(C(CNC(=O)C(CCSC)NC(=O)c2ccccc2Cl)N2CCCCC2)cc1 (stereo not shown) | -8.45
27 | Cc1nonc1OCCn1c([N+](=O)[O-])cnc1C | 11.6
28 | CN1CCN(c2oc(-c3ccc([N+](=O)[O-])cc3)nc2C#N)CC1 | -26.2

Row | SMILES | hERG current change (%, negative = inhibition) at 1uM [%]
29 | Cc1ccccc1NC(=O)CSc1nc2ncc(Cl)cc2[nH]1 | 10.3
30 | Cc1ccc(S(=O)(=O)N2CCN(Cc3cccnc3)CC2)cc1 | 3.83
31 | C/C(=N/NC(=O)c1ccccn1)c1c[nH]c2ccccc12 | 11.4
32 | COc1ccc(NS(=O)(=O)c2ccc(S(=O)(=O)N(C)C)cc2)cc1S(N)(=O)=O | 16.4
33 | Cc1cc(NC(=O)CSc2nnc(C3COc4ccccc4O3)o2)no1 (stereo not shown) | 3.22
34 | CCCn1c2ccccc2c2nnc(SCC(=O)OC)nc21 | 9.41
35 | Cc1ccc2c(CC(=O)NCC3COc4ccccc4O3)coc2c1 (stereo not shown) | 3.48
36 | Cc1cccc(-c2cnn(-c3cccc([N+](=O)[O-])c3)c2N)c1 | 7.27
37 | Cc1ccc(-c2csc(NC(=O)COc3ccc(N(C)S(=O)(=O)c4ccc(C)cc4)cc3)n2)cc1 | 17.4
38 | Nc1c(C(=O)c2ccccc2)sc(Nc2ccccc2)c1S(=O)(=O)c1ccccc1 | -19.3
39 | O=C(O)c1ccccc1CSc1ncccc1C(=O)O | 19.4
40 | CCC(C)NC(=O)CSc1nc2c(sc3ccccc32)c(=O)n1CCCN1CCOCC1 (stereo not shown) | -3.27
41 | Cc1ccc(C(c2sc3nc(C)nn3c2O)N2CCN(c3ccccc3)CC2)cc1 (stereo not shown) | 10.8
42 | COc1ccc(C(O)c2nccc3cc(OC)c(OC)cc23)cc1OC (stereo not shown) | 6.46
43 | Cc1ccc(C)c(N2CCN(C(=O)C3CCN(S(=O)(=O)c4c(C)noc4C)CC3)CC2)c1 | 7.93
44 | O=S1(=O)C[C@@H](O)[C@@H](Nc2ccccc2)C1 | 16.7
45 | CCOc1ncccc1C(=O)Nc1ccc(S(=O)(=O)N2CCCC2)cc1 | 10.2
46 | O=C(c1cc2cc(Cl)ccc2[nH]1)N1CCN(c2ccccn2)CC1 | 1.42
47 | Cc1cc(Cl)ccc1OCc1nc(-c2ccc(O)cc2)n[nH]1 | 8.42
48 | O=C(CSc1nnc2scc(-c3ccc(Cl)cc3)n12)NCc1ccco1 | 1.75
49 | Cc1cc(C)cc(OCC(=O)Nc2nc(-c3cccnc3)cs2)c1 | 4.54
50 | O=C(CSCC(=O)Nc1nccs1)Nc1ccccc1 | 1.77
51 | CCN(CC(=O)Nc1ccc(OC)c(OC)c1)S(=O)(=O)c1ccc(C)cc1 | 10.4
52 | CCC(C(=O)NC1CCCCC1)n1c(SCc2ccc(F)cc2)nc2ccncc21 (stereo not shown) | 0.236
53 | O=C(Cn1nnc2ccccc2c1=O)Nc1ccc2c(c1)CCC2 | -7.26
54 | COc1ccc(N2C(=O)CC(c3ccccc3)C2=O)cc1 (stereo not shown) | 16
55 | COc1ccc(N2C(=O)C3C4c5ccccc5C(C=Nc5ccc(C)cc5C)(c5ccccc54)C3C2=O)cc1 (stereo not shown) | 11.6
